Several values for one entry are separate records, joined by “and”; a condition that tells them apart may be missing. Equal entries are not always repeated. Among all 220,000 compounds or so, about 5,700 (2.6%) were called active. Inconclusive means that the source gave no clear call. Such entries were picked first, then a sample of the others. Calls come from the whole dose curve; as a rule, active = well fitted inhibition curve with a large enough effect; inconclusive = small, poorly fitted or top-dose-only effect; inactive = no such curve, though single readings can be large or run the other way. Potencies beside an inconclusive call are fits to weak or partial responses and may not hold up.
target: Lysine-specific demethylase 5B (Homo sapiens) (UniProt Q9UGL1); assay: Primary screen for KDM5B Histone Demethylases FDH-coupled qHTS; conditions: FDH-coupled NADH fluorescence (FDH is formaldehyde dehydrogenase); activity change, negative = inhibition: at 57.7 µM (top of the series) unless noted; note: nearly all actives have a fitted effect of over 70% in size; for activity change, negative = inhibition: 0% is about no effect
UniProt Q9UGL1, sequence (Q9UGL1 whole entry, looked up): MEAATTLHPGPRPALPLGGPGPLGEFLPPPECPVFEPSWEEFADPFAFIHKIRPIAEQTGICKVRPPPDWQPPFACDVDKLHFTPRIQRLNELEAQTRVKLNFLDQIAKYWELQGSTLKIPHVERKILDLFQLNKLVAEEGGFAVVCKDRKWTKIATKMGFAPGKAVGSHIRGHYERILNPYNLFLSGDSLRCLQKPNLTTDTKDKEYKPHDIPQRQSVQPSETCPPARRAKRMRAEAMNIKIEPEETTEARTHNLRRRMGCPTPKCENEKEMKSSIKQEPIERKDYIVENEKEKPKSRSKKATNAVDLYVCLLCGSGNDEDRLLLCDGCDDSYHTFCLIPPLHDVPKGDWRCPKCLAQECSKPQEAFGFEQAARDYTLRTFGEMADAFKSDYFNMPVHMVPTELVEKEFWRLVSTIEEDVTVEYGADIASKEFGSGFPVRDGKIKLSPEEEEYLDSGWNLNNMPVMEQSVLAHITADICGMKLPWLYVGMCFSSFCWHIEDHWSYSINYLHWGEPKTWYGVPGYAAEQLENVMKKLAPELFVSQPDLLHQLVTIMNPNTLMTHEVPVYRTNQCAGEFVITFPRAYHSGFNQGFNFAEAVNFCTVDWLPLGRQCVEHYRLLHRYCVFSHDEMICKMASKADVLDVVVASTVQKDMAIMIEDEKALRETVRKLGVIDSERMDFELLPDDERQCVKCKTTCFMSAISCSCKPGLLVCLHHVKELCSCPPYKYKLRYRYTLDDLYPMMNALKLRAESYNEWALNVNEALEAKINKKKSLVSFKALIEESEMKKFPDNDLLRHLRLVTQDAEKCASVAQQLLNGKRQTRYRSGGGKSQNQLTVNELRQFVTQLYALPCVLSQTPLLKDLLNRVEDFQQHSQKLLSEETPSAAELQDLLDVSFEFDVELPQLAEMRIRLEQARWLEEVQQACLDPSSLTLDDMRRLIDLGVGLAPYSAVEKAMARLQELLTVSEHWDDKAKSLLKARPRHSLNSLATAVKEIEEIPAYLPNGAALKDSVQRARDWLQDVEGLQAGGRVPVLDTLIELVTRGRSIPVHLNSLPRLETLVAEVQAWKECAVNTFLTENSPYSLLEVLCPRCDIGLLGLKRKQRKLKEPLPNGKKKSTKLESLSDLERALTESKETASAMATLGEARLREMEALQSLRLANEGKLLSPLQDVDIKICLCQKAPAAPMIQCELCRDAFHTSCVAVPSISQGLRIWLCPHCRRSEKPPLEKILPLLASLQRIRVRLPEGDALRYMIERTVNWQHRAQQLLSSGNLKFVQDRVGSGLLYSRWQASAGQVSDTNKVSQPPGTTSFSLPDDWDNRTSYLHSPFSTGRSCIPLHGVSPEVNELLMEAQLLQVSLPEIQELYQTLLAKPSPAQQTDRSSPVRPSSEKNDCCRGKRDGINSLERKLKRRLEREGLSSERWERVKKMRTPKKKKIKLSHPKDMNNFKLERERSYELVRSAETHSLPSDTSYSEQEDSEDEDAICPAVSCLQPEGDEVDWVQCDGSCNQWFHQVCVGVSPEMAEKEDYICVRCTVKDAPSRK
Method in brief: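 Coupled FDH/NAD⁺ fluorescence readout. KDM5BΔAP 200 nM final; compound titration, 10 min RT preincubation; substrate mix 12.5 µM H3K4me3, 25 µM 2-OG, 50 µM Fe(II), 100 µM ascorbate, 0.25 mM NAD⁺, 0.25 U/mL FDH; ΔRFU over 30 min.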
Potency is the fitted concentration of half-maximal effect; tags give direction and shape of the fitted curve.

| SMILES | Potency | activity change, negative = inhibition |
| --- | --- | --- |
| Cc1sc(NC(=O)C(C)C)c(C#N)c1C | inactive | – |
| CCN(CC)c1cc(CCC(=O)N(C)CCc2ccncc2)ccn1 | inconclusive: 22.4 µM [inhibitor, single point] | – |
| Cc1ccc(F)cc1N=Cc1ccc2ncccc2c1 | inconclusive: 39.8 µM [inhibitor, single point] | – |
| COc1ccc(OC)c(-c2cc(-c3cccs3)nc3c(C)noc23)c1 | active: 39.8 µM | – |
| CC1(C)CC(=O)c2cc(C#N)c(=O)n(-c3cccc(Cl)c3)c2C1 | inconclusive: 28.2 µM [inhibitor, partial curve, poor fit] | – |
| CCOc1cc2ccccc2cc1C(=O)O | inconclusive: 39.8 µM [inhibitor, single point] | – |
| Cc1ccc(S(=O)(=O)n2cnc3cc(C)c(C)cc32)cc1C | inactive | – |
| Cc1ccc(Nc2nc(-c3ccccc3)nc3ccccc23)cc1 | inconclusive: 35.5 µM [inhibitor, partial curve, poor fit] | – |
| CCc1ccc(Nc2nnc(SCC(=O)Nc3ccnn3C3CCCC3)s2)cc1 | inactive | – |
| Cc1nc(CN2CCOC3(CCN(Cc4ccccc4Cl)CC3)C2=O)cs1 | inconclusive: 44.7 µM [inhibitor, partial curve, poor fit] | – |
| CCc1nn(C(CC)C(=O)NCc2ccccc2C)c(=O)c2cc3oc(C)cc3n12 (stereo not drawn) | inactive | – |
| Cc1ccc(S(=O)(=O)c2nnn3c2nc(NCc2ccc(F)cc2)c2ccccc23)cc1 | inconclusive: 3.16 µM [inhibitor, full curve, poor fit] | – |
| CCOC(=O)c1c(NC(=O)c2ccc(C)cc2)sc2c1CCCCC2 | inconclusive: 50.1 µM [inhibitor, single point] | – |
| CCc1ccc(N2CC(c3nnc(NC(=O)c4ccco4)s3)CC2=O)cc1 (stereo not drawn) | inconclusive: 31.6 µM [inhibitor, single point] | – |
| O=C(NCCN1CCN(c2ccccc2F)CC1)c1ccc2nc3ccccc3c(=O)n2c1 | inconclusive: 22.4 µM [inhibitor, partial curve, poor fit] | – |
| Cc1c(C(=O)Nc2ccc(F)cc2F)oc2c1-c1nn(Cc3c(F)cccc3Cl)cc1CC2 | inconclusive: 14.1 µM [inhibitor, partial curve, poor fit] | – |
| CCC1CN(C(=O)c2ccc(-c3ccsc3)nc2)CCN1C(C)C (stereo not drawn) | inconclusive: 22.4 µM [inhibitor, partial curve, poor fit] | – |
| COc1cc(C(=O)/C=C/c2cccc(F)c2)ccc1S(C)(=O)=O | inconclusive: 10 µM [inhibitor, partial curve, poor fit] | – |
| COC(=O)[C@@H]1Cc2ncn(Cc3ccc(OC)cc3)c2CN1S(=O)(=O)c1ccc(OC)cc1 | inconclusive: 17.8 µM [inhibitor, partial curve] | – |
| Cc1ccc(CNC(=O)c2c[nH]c3ccc(S(=O)(=O)N4CCOCC4)cc3c2=O)cc1 | inconclusive: 11.2 µM [inhibitor, partial curve, poor fit] | – |
| Cc1sc2ccccc2[n+]1CC(=O)O | inconclusive: 28.2 µM [inhibitor, partial curve, poor fit] | – |
| COc1ccccc1-c1ccnc2c1c(=O)[nH]c(=O)n2CC1CCCO1 (stereo not drawn) | inconclusive: 10 µM [inhibitor, partial curve, poor fit] | – |
| COc1ccc(-c2cn3c(n2)sc2cc(C(=O)NCCC4=CCCCC4)ccc23)cc1 | inconclusive: 3.16 µM [inhibitor, full curve, poor fit] | – |

| SMILES | Potency | activity change, negative = inhibition |
| --- | --- | --- |
| COc1cccc(C(Nc2ccccn2)c2c(NC(=O)c3ccco3)sc(C)c2C)c1 (stereo not drawn) | inconclusive: 39.8 µM [inhibitor, single point] | – |
| CCOc1ccc(C2C(C(=O)Nc3ccccc3)=C(C)Nc3nc(-c4ccccc4)nn32)cc1OC (stereo not drawn) | – | inconclusive: -35.8% [inhibitor] |
| CC(=O)Cc1nsc(NC(=O)c2ccc(-c3ccc(Cl)c(Cl)c3)o2)n1 | inconclusive: 35.5 µM [inhibitor, single point] | – |
| Cc1ccccc1-c1nc(CNS(=O)(=O)c2ccc(Cl)cc2)c(C)o1 | inactive | – |
| COc1ccc(CCC(=O)N2CCC3(CC2)NC(=O)N(c2cccc(F)c2)N3)cc1 | inactive | – |
| CCNC(=O)c1ccc(C)c(-n2c(C)nc3cccnc32)c1 | inconclusive: 39.8 µM [inhibitor, single point] | – |
| COc1ncccc1-c1cc(C2=CCOCC2)c2cncn2c1 | active: 35.5 µM | – |
| COCc1nc2nccc(-c3cc(OC)c(OC)c(OC)c3)n2n1 | inactive | – |
| Cc1cc(Br)cc(C)c1NC(=O)c1sc2ncn(Cc3cccc(F)c3)c(=O)c2c1C | inconclusive: 35.5 µM [inhibitor, single point] | – |
| O=C(CSc1nc2ccccc2c(=O)n1-c1ccc(F)cc1F)NC(=O)NC1CCCC1 | inactive | – |
| O=C(c1cccc2nccnc12)N1CCc2c(ncnc2N2CCOCC2)C1 | inconclusive: 17.8 µM [inhibitor, single point] | – |
| CCCCNC(=O)NC(=O)CN(C)CCCc1ccccc1 | inactive | – |
| Cc1nc(-c2ccc(S(=O)(=O)N3CCN(c4cccc(C(F)(F)F)c4)CC3)cc2)co1 | inconclusive: 7.94 µM [inhibitor, partial curve, poor fit] and inconclusive: 31.6 µM [inhibitor, single point] | – |
| O=C(O)C[C@@H]1CCN(Cc2c[nH]c3ccccc23)C[C@@H]1CCN1C[C@@H]2C[C@H](C1)c1cccc(=O)n1C2 | inconclusive: 20 µM [inhibitor, partial curve, poor fit] | – |
| Cc1ccc(CN(Cc2ccco2)C(=O)c2ccccc2Br)o1 | – | inconclusive: -30.5% [inhibitor] |
| COc1ccccc1NC(=O)c1cc(=O)c2cc(C)ccc2o1 | inactive | – |
| CCC(=O)N1N=C(c2cccs2)CC1c1ccc2nccnc2c1 (stereo not drawn) | inactive | – |
| CCN(C(=O)COC(=O)c1n[nH]c2ccccc12)C1CCCCC1 | inconclusive: 25.1 µM [inhibitor, partial curve, poor fit] | – |
| Oc1ccc2c(-c3ccc(F)cc3)noc2c1 | inconclusive: 25.1 µM [inhibitor, partial curve, poor fit] | – |
| NC(=O)NC(=O)COC(=O)c1ccc2c(c1)OCCO2 | inactive | – |
| Cc1cc2c(=O)n(C)c(SCC(=O)Nc3cccc(O)c3)nc2s1 | inactive | – |
| OC(C#CC(O)(c1ccccc1)c1ccccc1)c1ccc(F)cc1 (stereo not drawn) | inactive | – |
| COc1ccccc1Nc1nc(-c2ccccc2)nc2ccccc12 | inconclusive: 31.6 µM [inhibitor, partial curve, poor fit] | – |

| SMILES | Potency | activity change, negative = inhibition |
| --- | --- | --- |
| COCCCNC(=O)c1ccc(Cn2c(SCc3ccc(F)cc3)nc3cccnc32)cc1 | inconclusive: 31.6 µM [inhibitor, partial curve, poor fit] | – |
| CC1(C)CNC(=O)c2nc(CCN3CCCc4ccccc43)[nH]c2C1 | active: 15.8 µM | – |
| CN(C)S(=O)(=O)c1ccc(Cl)c(NC(=O)COC(=O)c2nn(C)c(=O)c3ccccc23)c1 | inactive | – |
| O=C(Nc1ccc(Oc2ccccc2)cc1)O[C@@H]1CO[C@H]2[C@@H]1OC[C@@H]2NC(=S)Nc1ccccc1 | inconclusive: 35.5 µM [inhibitor, partial curve, poor fit] | – |
| C=C(C)CN(CC)C(=O)CCc1cccs1 | inactive | – |
| CC(=O)c1ccc(N2CCN(C(=O)c3cc(S(=O)(=O)N4CCCCCC4)cn3C)CC2)cc1 | inconclusive: 15.8 µM [inhibitor, partial curve, poor fit] | – |
| O=C(Cc1nc2ccccc2[nH]1)c1ccc(Br)cc1 | inconclusive: 17.8 µM [inhibitor, partial curve, poor fit] | – |
| O=C(c1ccc(-c2ccc(N3CCCCC3)nc2)cc1)N1CCOCC1 | active: 28.2 µM | – |
| O=C(NCc1ccc(Cl)nc1)c1ccn2cncc2c1 | inactive | – |
| COc1ccc(C(=O)N2CC3(Cc4ccccc4N(C(C)=O)C3)C2)cc1 | inactive | – |
| CCOC(=O)c1sc2ncn(CC(=O)Nc3cc(Cl)ccc3C)c(=O)c2c1C | inconclusive: 25.1 µM [inhibitor, partial curve, poor fit] | – |
| Cn1c(=O)c2c(nc(Nc3ccc(Cl)cc3Cl)n2CC(=O)O)n(C)c1=O | inactive | – |
| COc1cccc(CN2CCCN(Cc3ccncc3)C(c3ccccc3)CC(=O)NCC2)c1 (stereo not drawn) | inconclusive: 31.6 µM [inhibitor, single point] | – |
| CCOC(=O)c1cc2c(=O)n3ccccc3nc2n(CC2CCCO2)c1=NC(=O)c1ccccc1Br (stereo not drawn) | inconclusive: 28.2 µM [inhibitor, partial curve, poor fit] | – |
| CCOC(=O)c1oc2nc(CC(C)C)c3c(c2c1N)CCCC3 | inconclusive: 20 µM [inhibitor, partial curve, poor fit] | – |
| COCc1cc(CC2(NCc3ccc(CO)o3)COC2)no1 | inconclusive: 35.5 µM [inhibitor, single point] | – |
| O=C(c1cc2ccc3cccnc3c2[nH]1)N1CCCCC1 | inactive | – |
| Cc1c(C)c(OC(=O)c2ccccc2)c(Cc2nc3ccccc3s2)c(C)c1O | inactive | – |
| CC(C)NC(=O)c1cc2n(n1)CC(c1ccc3c(c1)OCO3)OC2 (stereo not drawn) | inconclusive: 25.1 µM [inhibitor, partial curve] | – |
| Cn1cc(-c2cc(=O)c3ccnc(NCc4ccc5c(c4)OCO5)c3o2)cn1 | active: 31.6 µM | – |
| CC(=O)Nc1ccc(-c2c(C3CC3)nn(-c3cccc(C)c3)c2OC(C)=O)cc1 | inconclusive: 31.6 µM [inhibitor, single point] | – |
| O=C(NC1CC1)c1cc(-c2ccc3c(c2)OCCO3)nc2ccccc12 | inconclusive: 35.5 µM [inhibitor, single point] | – |

From PubChem BioAssay AID1347165 (National Center for Advancing Translational Sciences (NCATS), 2019)
